# Laboratory results from a collection of fitness landscapes (doi:10.1016/j.celrep.2020.107928).
# The full ranking holds about 81,000 sequences; the median of “one-hybrid fitness for binding NBS DNA” is about -0.1, and the highest 2% start at about 0.36. The list shows a part of the results.
# B1: Caulobacter ParB omega fusion; a variant is named by its letters at X, in order, B8GW30 (parent)
# chain: MESVVVGEPGMSEGRRGLGRGLSALLGEVDAAPAQAPGEQLGGSREAPIEILQRNPDQPRRTFREEDLEDLSNSIREKGVLQPILVRPSPDTAGEYQIVAGERAWRAAQRAGLKTVPIMVRELDDLAVLEIGIIENVQRADLNVLEEALSYKVLMEKFERTQENIAQTIGKSXSHVANXMRLLXLPDEVQSYLVSGELTAXHARAIAAAADPVALAKQIIEGGLSVRETEALARKAPNLSAGKSKGGRPPRVKDTDTQALESDLSSVLGLDVSIDHRGSTGTLTITYATLEQLDDLCNRLTRGI
# Variants of: B1
# Assay: one-hybrid fitness for binding NBS DNA (the Noc-binding site; scaled: cognate 1, non-cognate 0); higher = stronger binding
# Details: with NBS DNA site
# In short: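 Bacterial one-hybrid selection in E. coli USO rpoZ- hisB- pyrF- with a HIS3 reporter carrying the site 19 bp from the promoter, screening Caulobacter ParB libraries with four specificity codons randomised (NNS). Cells grew 48 hours at 37°C on M9-minus-histidine plus 0.1 mM IPTG and 5 mM 3-AT. Plasmids before and after selection were Illumina-sequenced, three replicate libraries pooled, and variants under 10 reads dropped. Fitness is the log change in variant-to-wild-type read ratio, rescaled to cognate 1, non-cognate 0.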
row,Variant,one-hybrid fitness for binding NBS DNA
1,VMFV,≤ 0.2
2,SGGS,≤ 0.2
3,VFRR,≤ 0.2
4,TIAE,≤ 0.2
5,NPAQ,≤ 0.2
6,CRNL,≤ 0.2
7,QSIC,≤ 0.2
8,CLMW,≤ 0.2
9,FRAT,≤ 0.2
10,PAKT,≤ 0.2
11,HVNR,≤ 0.2
12,RAKH,0.36
13,ASSD,≤ 0.2
14,LPQF,≤ 0.2
15,NDYR,≤ 0.2
16,IRKV,≤ 0.2
17,CWQS,≤ 0.2
18,NCHD,≤ 0.2
19,WSVK,≤ 0.2
20,PIGR,≤ 0.2
21,FNRR,≤ 0.2
22,AMKG,≤ 0.2
23,LLVS,≤ 0.2
24,KKTK,≤ 0.2

row,Variant,one-hybrid fitness for binding NBS DNA
1,QVSA,≤ 0.2
2,HCPY,≤ 0.2
3,WMEW,≤ 0.2
4,PGAK,≤ 0.2
5,EWEL,≤ 0.2
6,QSTQ,≤ 0.2
7,LLVT,≤ 0.2
8,SINT,≤ 0.2
9,MVDS,≤ 0.2
10,SYVW,≤ 0.2
11,SNHA,≤ 0.2
12,NAPT,≤ 0.2
13,RITF,≤ 0.2
14,QSGG,≤ 0.2
15,YMEW,≤ 0.2
16,YGEG,≤ 0.2
17,AVRN,≤ 0.2
18,KHTD,≤ 0.2
19,RPAN,≤ 0.2
20,RLSY,≤ 0.2
21,RQRG,≤ 0.2
22,KGAC,≤ 0.2
23,PAMR,≤ 0.2
24,TSPS,≤ 0.2

row,Variant,one-hybrid fitness for binding NBS DNA
1,IPVC,≤ 0.2
2,GGAN,≤ 0.2
3,IMAG,≤ 0.2
4,PNAY,≤ 0.2
5,NARV,≤ 0.2
6,CVKR,≤ 0.2
7,RYFT,≤ 0.2
8,PVAN,≤ 0.2
9,ADAT,≤ 0.2
10,QYKD,0.212
11,VTFM,≤ 0.2
12,MCTR,≤ 0.2
13,LRNP,≤ 0.2
14,RGWM,≤ 0.2
15,DVYT,≤ 0.2
16,QMTH,≤ 0.2
17,LFCR,≤ 0.2
18,LLRT,≤ 0.2
19,DMDV,≤ 0.2
20,PSKV,≤ 0.2
21,KENP,≤ 0.2
22,WKTL,≤ 0.2
23,QGSI,≤ 0.2
24,SAWS,≤ 0.2

row,Variant,one-hybrid fitness for binding NBS DNA
1,TTCI,≤ 0.2
2,DGVC,≤ 0.2
3,FVAV,≤ 0.2
4,RRKV,0.694
5,HFPW,≤ 0.2
6,RTYK,≤ 0.2
7,WQSR,≤ 0.2
8,QLYW,≤ 0.2
9,IAPF,≤ 0.2
10,HHIH,≤ 0.2
11,IRRS,0.349
12,ETLE,≤ 0.2
13,PSHP,≤ 0.2
14,LFCA,≤ 0.2
15,RVYH,≤ 0.2
16,ISSI,≤ 0.2
17,RLSE,≤ 0.2
18,PPSG,≤ 0.2
19,QTQA,0.432
20,SLKE,≤ 0.2
21,ELAV,≤ 0.2
22,RCPC,≤ 0.2
23,YDLS,≤ 0.2
24,RNWY,≤ 0.2

row,Variant,one-hybrid fitness for binding NBS DNA
1,IPAV,≤ 0.2
2,PNDT,≤ 0.2
3,QKQM,≤ 0.2
4,NTTT,≤ 0.2
5,NLYH,≤ 0.2
6,EPDS,≤ 0.2
7,EVTC,≤ 0.2
8,SCEW,≤ 0.2
9,PKCG,≤ 0.2
10,CASC,≤ 0.2
11,KKQL,≤ 0.2
12,CMSS,≤ 0.2
13,FTKV,≤ 0.2
14,CCPC,≤ 0.2
15,QTYR,0.691
16,PSWP,≤ 0.2
17,FEMC,≤ 0.2
18,IPFD,≤ 0.2
19,GLTT,≤ 0.2
20,RPVG,≤ 0.2
21,QFQA,≤ 0.2
22,QRFN,0.353
23,QENC,≤ 0.2
24,RVYW,≤ 0.2

row,Variant,one-hybrid fitness for binding NBS DNA
1,LWHP,≤ 0.2
2,CPLN,≤ 0.2
3,PGMI,≤ 0.2
4,QAGP,≤ 0.2
5,GNSV,≤ 0.2
6,TSVH,≤ 0.2
7,ESRD,≤ 0.2
8,PKYN,≤ 0.2
9,VEDC,≤ 0.2
10,WMMS,≤ 0.2
11,AVGK,≤ 0.2
12,NMWL,≤ 0.2
13,SVFS,≤ 0.2
14,QIRI,≤ 0.2
15,DSLW,≤ 0.2
16,AMMK,≤ 0.2
17,SLDS,≤ 0.2
18,FTSR,≤ 0.2
19,KCLY,≤ 0.2
20,CIAT,≤ 0.2
21,QCGP,≤ 0.2
22,STQY,≤ 0.2
23,NRSH,≤ 0.2
24,YIIY,≤ 0.2

row,Variant,one-hybrid fitness for binding NBS DNA
1,VCRC,≤ 0.2
2,TYLV,≤ 0.2
3,WQRC,≤ 0.2
4,CTAC,≤ 0.2
5,MCLV,≤ 0.2
6,LNTF,≤ 0.2
7,LFKP,≤ 0.2
8,NQLG,≤ 0.2
9,TCVV,≤ 0.2
10,GHQG,≤ 0.2
11,KWKA,≤ 0.2
12,RADV,≤ 0.2
13,RSCR,0.38
14,CPTY,≤ 0.2
15,NFLN,≤ 0.2
16,RHRK,≤ 0.2
17,LRGL,≤ 0.2
18,RTDH,≤ 0.2
19,SLGN,≤ 0.2
20,HCNE,≤ 0.2
21,HIEI,≤ 0.2
22,ILKC,≤ 0.2
23,PNTG,≤ 0.2
24,QAAI,≤ 0.2

row,Variant,one-hybrid fitness for binding NBS DNA
1,LRIH,≤ 0.2
2,TTDT,≤ 0.2
3,PIRK,≤ 0.2
4,QLAC,≤ 0.2
5,KYQR,≤ 0.2
6,MPLA,≤ 0.2
7,PPQW,≤ 0.2
8,KGGS,≤ 0.2
9,LTLL,≤ 0.2
10,LEIT,≤ 0.2
11,DGET,≤ 0.2
12,LPKE,≤ 0.2
13,YTRD,≤ 0.2
14,HAMK,≤ 0.2
15,QRLA,0.547
16,VHPT,≤ 0.2
17,LTLV,≤ 0.2
18,CTII,≤ 0.2
19,YNLG,≤ 0.2
20,SHYS,≤ 0.2
21,CAGT,≤ 0.2
22,CTGE,≤ 0.2
23,SRFC,≤ 0.2
24,QEKS,≤ 0.2

row,Variant,one-hybrid fitness for binding NBS DNA
1,NTLG,≤ 0.2
2,KRFH,≤ 0.2
3,EFAR,≤ 0.2
4,TEVS,≤ 0.2
5,MNSW,≤ 0.2
6,CTTW,≤ 0.2
7,AQRV,≤ 0.2
8,QMIW,≤ 0.2
9,QRKF,0.405
10,MNPG,≤ 0.2
11,YRFC,≤ 0.2
12,NHTC,≤ 0.2
13,TMKG,≤ 0.2
14,VIQW,≤ 0.2
15,NGVV,≤ 0.2
16,GKLV,≤ 0.2
17,RRCR,0.75
18,ECAS,≤ 0.2
19,EQLN,≤ 0.2
20,SAAM,≤ 0.2
21,CHNW,≤ 0.2
22,RVNE,≤ 0.2
23,LDYP,≤ 0.2
24,RFAV,≤ 0.2

row,Variant,one-hybrid fitness for binding NBS DNA
1,SGIW,≤ 0.2
2,THGL,≤ 0.2
3,SMVL,≤ 0.2
4,FYPG,≤ 0.2
5,SMPK,≤ 0.2
6,ENNW,≤ 0.2
7,NEEY,≤ 0.2
8,WWLG,≤ 0.2
9,CINR,≤ 0.2
10,TPAY,≤ 0.2
11,QATR,0.507
12,PGTM,≤ 0.2
13,ICNC,≤ 0.2
14,DSPR,≤ 0.2
15,LPMR,≤ 0.2
16,YWHR,≤ 0.2
17,WSRR,0.239
18,VWKT,≤ 0.2
19,GPIG,≤ 0.2
20,SLCM,≤ 0.2
21,YMKT,≤ 0.2
22,HAMT,≤ 0.2
23,REAL,≤ 0.2
24,NIDG,≤ 0.2

row,Variant,one-hybrid fitness for binding NBS DNA
1,KGSS,≤ 0.2
2,QGKP,≤ 0.2
3,AAHW,≤ 0.2
4,YVHT,≤ 0.2
5,TLKL,≤ 0.2
6,PKGS,≤ 0.2
7,QTRK,0.546
8,NVMS,≤ 0.2
9,PWEL,≤ 0.2
10,IHKC,≤ 0.2
11,RSSS,0.437
12,AELM,≤ 0.2
13,NGIS,≤ 0.2
14,FRNT,≤ 0.2
15,PARS,≤ 0.2
16,QTAK,≤ 0.2
17,SNMG,≤ 0.2
18,TRSC,≤ 0.2
19,NPLV,≤ 0.2
20,MDYT,≤ 0.2
21,TLQK,≤ 0.2
22,HADK,≤ 0.2
23,WVNR,≤ 0.2
24,GNAS,≤ 0.2

row,Variant,one-hybrid fitness for binding NBS DNA
1,FLMS,≤ 0.2
2,TPSM,≤ 0.2
3,QELA,≤ 0.2
4,PQRH,≤ 0.2
5,HYKG,≤ 0.2
6,SLME,≤ 0.2
7,AILP,≤ 0.2
8,SLLV,≤ 0.2
9,MHDY,≤ 0.2
10,TSHG,≤ 0.2
11,ESGT,≤ 0.2
12,QYYS,0.312
13,NMWY,≤ 0.2
14,SWRY,≤ 0.2
15,GSNL,≤ 0.2
16,FCGG,≤ 0.2
17,YWNW,≤ 0.2
18,DWNR,≤ 0.2
19,CRRS,≤ 0.2
20,ERAS,≤ 0.2
21,PHAY,≤ 0.2
22,TYQE,≤ 0.2
23,AQIT,≤ 0.2
24,VAVS,≤ 0.2

row,Variant,one-hybrid fitness for binding NBS DNA
1,HHPK,≤ 0.2
2,PMEG,≤ 0.2
3,TLAG,≤ 0.2
4,GSRS,≤ 0.2
5,PHFC,≤ 0.2
6,KVER,≤ 0.2
7,YPGL,≤ 0.2
8,HRNV,≤ 0.2
9,WFSS,≤ 0.2
10,PTYV,≤ 0.2
11,VAPC,≤ 0.2
12,DSTY,≤ 0.2
13,QRVT,0.69
14,YSWG,≤ 0.2
15,RDLC,≤ 0.2
16,PPSI,≤ 0.2
17,EYIM,≤ 0.2
18,IMQG,≤ 0.2
